Data published in article PMC11369174 (Molecular Systems Biology, 2024).
Where no end group is shown, it is not given here.

Target: T1, FITC-NFE2L1 (also: FITC label, position not given here)
T1 chain: LLVDGETGESFPAQVP
Experiment: fluorescence polarisation; saturation binding: dilution series of the protein domain added to 10 nM FITC-labelled peptide; 50 mM sodium phosphate pH 7.4, 0.05% Tween (protein dialysed in 50 mM sodium phosphate with 1 mM DTT; CASK kinase domain with 100 mM NaCl in addition); quadratic fit; technical triplets
Settings: both partners purified

B1: Kelch-like ECH-associated protein (KEAP1) KELCH domain (domain or fragment)
chain: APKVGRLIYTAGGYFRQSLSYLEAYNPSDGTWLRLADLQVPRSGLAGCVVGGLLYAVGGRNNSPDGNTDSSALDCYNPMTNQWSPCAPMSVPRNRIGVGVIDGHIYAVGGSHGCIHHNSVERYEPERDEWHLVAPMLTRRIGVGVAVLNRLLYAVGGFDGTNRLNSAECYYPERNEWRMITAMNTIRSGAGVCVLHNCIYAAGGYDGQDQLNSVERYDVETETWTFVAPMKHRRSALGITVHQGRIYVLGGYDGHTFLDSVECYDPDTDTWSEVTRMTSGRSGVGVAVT
Kd: 8 nM
